# Where “and” joins values, the source holds several entries; their conditions need not be identical. Equal entries are not always repeated. Inconclusive results, whose numbers are uncertain, are shown with a selection of clear calls. For part of these data: Potencies beside an inconclusive call are fits to weak or partial responses and may not hold up. Calls of active or inactive are those of the source. Unless noted, calls follow the shape of the dose curve; as a rule, active = well fitted curve in the direction sought with a large enough effect in the repeat runs; inconclusive = weak or mixed curves; inactive = no such curve, though single readings can be large; an effect the other way counts as inactive or inconclusive.
# Key:
# [1] = target: Cytochrome P450 2C19 (Homo sapiens) (UniProt P33261); assay: Cytochrome P450 Family 2 Subfamily C Member 19 (CYP2C19) small molecule antagonists: luciferase reporter qHTS assay (AID 1671197); also: nearly all actives have a fitted effect of over 65% in size; also: potency is read from the fitted curve at half-maximal effect
# Summary of the method: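 First, compounds are pinned into enzyme-substrate mix and held 10 min at room temperature. Second, NADPH regeneration solution is added and plates incubate 1 h at 37C. Third, detection reagent is added and luminescence read after 20 min.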
# [2] = qHTS assay for small molecule disruptors of the mitochondrial membrane potential (AID 720635); conditions: HepG2 mitochondrial membrane potential, Mito-MPS dye ratio; ratio activity, negative = MMP loss: at 83.2 µM (top of the series) unless noted; also: potency is read from the fitted curve at half-maximal effect
# Summary of the method: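 HepG2 cells exposed to compound 1 hr at 37C, then Mito-MPS dye 30 min. Ratio read of aggregate (540/590 nm) versus monomer (490/535 nm) fluorescence.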
# [3] = target: Vitamin D3 receptor (Homo sapiens) (UniProt P11473); assay: qHTS assay to identify small molecule antagonists of the vitamin D receptor (VDR) signaling pathway (AID 743223; active = well fitted inhibition curve with a large enough effect in the signal ratio in the repeat runs, not every such curve was filed as active; inconclusive = weak or mixed curves, or effect the other way; inactive = no such curve, though single readings can be large or run the other way; the % refers to the signal ratio; also: potency is read from the fitted curve at half-maximal effect; as to activity change, negative = inhibition: % is scaled to controls: 0 for no effect and ±100 for the full control effect); conditions: VDR-UAS-bla HEK293T, beta-lactamase FRET ratio, 16 h; activity change, negative = inhibition: at 61 µM (top of the series) unless noted
# Summary of the method: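 Beta-lactamase reporter read-out: FRET substrate fluorescence after 2 h at room temperature, following 16 h exposure of VDR-bla cells to test compound plus 3 nM (final) 1alpha,25-dihydroxyvitamin D3 agonist at 37C.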
# [4] = qHTS assay to identify small molecule antagonists of the progesterone receptor (PR) signaling pathway - cell viability counter screen (AID 1346798); also: % is scaled to controls: 0 for no effect and ±100 for the full control effect; nearly all actives have a fitted effect of over 50% in size
# Summary of the method: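 Luminescence readout (CellTiter-Glo, 30 min, RT) of viability in PR-UAS-bla HEK293T cells exposed to compound and R5020 agonist for 16 hr at 37C, 5% CO2; run in the same wells as the beta-lactamase reporter read.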
# [5] = target: Cytochrome P450 1A2 (Homo sapiens) (UniProt P05177); assay: Cytochrome P450 Family 1 Subfamily A Member 2 (CYP1A2) small molecule antagonists: luciferase reporter qHTS assay (AID 1671199); also: nearly all actives have a fitted effect of over 50% in size; also: potency is read from the fitted curve at half-maximal effect; as to activity change, negative = inhibition: % is scaled to controls: 0 for no effect and ±100 for the full control effect
# Summary of the method: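 Steps: enzyme-substrate mix dispensed; test compounds and furafylline control pinned in; 10 min room temperature; NADPH regeneration solution added, 1 h; reaction stopped with luciferin detection reagent; luminescence read after 20 min.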
# [6] = qHTS assay to identify small molecule antagonists of the thyroid receptor (TR) signaling pathway - cell viability counter screen (AID 743064); conditions: GH3.TRE-Luc viability, CellTiter-Fluor, 24 h; activity change, negative = cytotoxic: at 70.3 µM (top of the series) unless noted; also: nearly all actives have a fitted effect of over 50% in size; also: potency is read from the fitted curve at half-maximal effect
# Summary of the method: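 GH3.TRE-Luc cells, 4 h pre-plating; cpd + T3 1 nM final; 37 °C 23.5 h; CellTiter-Fluor 30 min; fluorescence read.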
# [7] = qHTS assay to identify small molecule antagonists of the estrogen receptor alpha (ER-alpha) signaling pathway - cell viability counter screen (AID 743074; calls by dose curve;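 also: HEK293 cells carrying ER-alpha-UAS-bla reporter stimulated with 17beta-estradiol; potency is read from the fitted curve at half-maximal effect; nearly all actives have a fitted effect of over 45% in size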)
# [8] = qHTS assay for small molecule agonists of the antioxidant response element (ARE) signaling pathway (AID 743202; active = well fitted activation curve with a large enough effect in the signal ratio in the repeat runs, not every such curve was filed as active; inconclusive = weak or mixed curves, or effect the other way; inactive = no such curve, though single readings can be large or run the other way; the % refers to the signal ratio; also: % is scaled to controls: 0 for no effect and ±100 for the full control effect); conditions: HepG2 ARE-bla reporter, beta-lactamase FRET, 16 h; activation: at 73.3 µM (top of the series) unless noted
# Summary of the method: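 HepG2 ARE-bla reporter line, 2,000 cells/well; 5 h preincubation 37 C/5% CO2; compound (DMSO) 16 h 37 C; B/G FRET substrate 2 h RT; fluorescence intensity.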
# [9] = qHTS assay to identify small molecule antagonists of the peroxisome proliferator-activated receptor delta (PPARd) signaling pathway - cell viability counter screen (AID 743213); conditions: PPARd-bla HEK293H viability, CellTiter-Glo luminescence, 17 h; viability change, negative = cytotoxic: at 62 µM (top of the series) unless noted; also: % is scaled to controls: 0 for no effect and ±100 for the full control effect; nearly all actives have a fitted effect of over 50% in size
# Summary of the method: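 In this counter screen, HEK293H cells carrying a UAS-beta-lactamase reporter are co-treated with test compounds and 300 nM L165041 (final) for 17 h at 37 C; cell viability is quantified by CellTiter-Glo luminescence.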
# [10] = target: Cytochrome P450 2D6 (Homo sapiens) (UniProt P10635); assay: Cytochrome P450 Family 2 Subfamily D Member 6 (CYP2D6) small molecule antagonists: luciferase reporter qHTS assay (AID 1671196); also: nearly all actives have a fitted effect of over 50% in size; also: potency is read from the fitted curve at half-maximal effect
# Summary of the method: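 Test chemicals meet CYP2D6 plus proluciferin substrate (10 min, RT); NADPH regenerating solution then drives turnover for 1 h. Detection reagent halts the reaction; luminescence measured after 20 min.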
# [11] = target: Cytochrome P450 2C9 (Homo sapiens) (UniProt P11712); assay: Cytochrome P450 Family 2 Subfamily C Member 9 (CYP2C9) small molecule antagonists: luciferase reporter qHTS assay (AID 1671198); also: nearly all actives have a fitted effect of over 50% in size; also: potency is read from the fitted curve at half-maximal effect
# Summary of the method: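 P450-Glo proluciferin substrate with CYP2C9 enzyme; 10 min RT preincubation, then NADPH regeneration 1 h at 37C; luciferin detection reagent 20 min RT, luminescence in relative luminescence units.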
# [12] = qHTS assay to identify small molecule antagonists of the estrogen related receptor signaling pathway with the pleiotropic PPARgamma coactivator (PGC) from Tox21 10K library (AID 1224841; call rule not given here; also: potency is read from the fitted curve at half-maximal effect)
# Summary of the method: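 Cells stably carrying the PGC/ERR reporter, seeded at 2,000 per well, received pin-transferred compounds 6 h post-plating. Exposure lasted 18 h at 37 C. Signal: One-Glo luminescence.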
# [13] = target: Thyrotropin receptor (Homo sapiens) (UniProt P16473); assay: qHTS assay to identify small molecule agonists of the thyroid stimulating hormone receptor (TSHR) signaling pathway (AID 1224843; calls by dose curve; also: % is scaled to controls: 0 for no effect and ±100 for the full control effect; nearly all actives have a fitted effect of over 45% in size); conditions: TSHR-HEK293 cells, cAMP HTRF, agonist mode, 30 min; activation: at 92.4 µM (top of the series) unless noted
# Summary of the method: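 HEK293/TSHR, 800 cells/well; cpd 30 min RT; add cAMP-d2 + anti-cAMP-cryptate, 1 h RT; fluorescence read on plate reader. 15-pt titration, n=3.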
# [14] = target: Peroxisome proliferator-activated receptor gamma (Homo sapiens) (UniProt P37231); assay: qHTS assay to identify small molecule antagonists of the peroxisome proliferator-activated receptor gamma (PPARg) signaling pathway (AID 743191; calls by dose curve; also: nearly all actives have a fitted effect of over 30% in size; also: potency is read from the fitted curve at half-maximal effect); conditions: HEK293H PPARg-UAS-bla, beta-lactamase ratio, antagonist, 17 h; ratio activity, negative = inhibition: at 62.6 µM (top of the series) unless noted
# Summary of the method: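 GeneBLAzer PPARg UAS-bla HEK293H cells, 5 h post-plating, exposed to compounds 17 h at 37C. LiveBLAzer B/G FRET substrate added for 1 h at room temperature; beta-lactamase reporter read by fluorescence intensity.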
# [15] = qHTS assay for identifying genotoxic compounds that show differential cytotoxicity against isogenic chicken DT40 cell lines with known DNA damage response pathways - wild type cell line (AID 743012); conditions: DT40 wild type chicken cells viability, CellTiter-Glo, 40 h; activity change, negative = cytotoxicity: at 68.4 µM (top of the series) unless noted; also: potency is read from the fitted curve at half-maximal effect; nearly all actives have a fitted effect of over 60% in size
# Summary of the method: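 Luminescent ATP viability signal (CellTiter-Glo, 30 min RT) recorded after wild type DT40 cells were incubated with compounds for 40 h at 37 C/5% CO2.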
# [16] = qHTS assay for small molecule agonists of the p53 signaling pathway (AID 651631; calls by dose curve; also: potency is read from the fitted curve at half-maximal effect; nearly all actives have a fitted effect of over 15% in size); conditions: HCT-116 p53RE-bla reporter, beta-lactamase FRET ratio, 16 h; activation: at 73.3 µM (top of the series) unless noted
# Summary of the method: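 p53RE-bla HCT-116 cells; compounds 16 h, 37 °C; LiveBLAzer B/G FRET substrate 2 h RT; fluorescence intensity read-out, qHTS format.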
# [17] = qHTS assay to identify small molecule agonists of the hypoxia (HIF-1) signaling pathway - cell viability counter screen (AID 1224844; calls by dose curve)
# Summary of the method: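 Viability counter screen: HRE-bla ME-180 cells plated 5 hrs before compound addition, treated 17 hrs at 37C and 5% CO2, then CellTiter-Glo added after the FRET reporter read; luminescence after 30 min.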
# [18] = qHTS assay to identify small molecule agonists of the progesterone receptor (PR) signaling pathway - cell viability counter screen (AID 1346799; calls by dose curve; also: nearly all actives have a fitted effect of over 45% in size; also: potency is read from the fitted curve at half-maximal effect)
# Summary of the method: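 HEK293T PR-UAS-bla, 3,000 cells/well, 2% charcoal-stripped FBS; 6 h settle, compound 16 h at 37C/5% CO2; LiveBLAzer 2 h RT, then CellTiter-Glo 30 min RT, luminescence read.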
# [19] = qHTS assay to identify small molecule agonists of H2AX (AID 1224845; active = well fitted activation curve with a large enough effect in the signal ratio in the repeat runs, not every such curve was filed as active; inconclusive = weak or mixed curves; the % refers to the signal ratio; also: potency is read from the fitted curve at half-maximal effect); conditions: CHO-K1 phospho-H2AX Ser139 HTRF, 3 h; activation (H2AX phosphorylation): at 154 µM (top of the series) unless noted
# Summary of the method: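 Wild-type CHO-K1 cells, plated overnight, exposed 3hr at 37C to 15 concentrations (0.76% DMSO final). Lysed, then HTRF anti-pH2AX (S139) cryptate and anti-H2AX-d2 antibodies, 24 hr room temperature; 665/620 nm emission read.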
# [20] = target: Glucocorticoid receptor (Homo sapiens) (UniProt P04150); assay: qHTS assay to identify small molecule antagonists of the glucocorticoid receptor (GR) signaling pathway (AID 720692; active = well fitted inhibition curve with a large enough effect in the signal ratio in the repeat runs, not every such curve was filed as active; inconclusive = weak or mixed curves, or effect the other way; inactive = no such curve, though single readings can be large or run the other way; the % refers to the signal ratio; also: % is scaled to controls: 0 for no effect and ±100 for the full control effect); conditions: GR-bla HeLa, beta-lactamase FRET ratio, dexamethasone-stimulated, 18 h; activity change, negative = inhibition: at 58.5 µM (top of the series) unless noted
# Summary of the method: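 Quantitative HTS in antagonist format: HeLa cells expressing endogenous GR and a stably integrated GRE-bla reporter, stimulated with 5 nM dexamethasone (final) alongside test compounds for 18 h.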
# Tags tell the direction and shape of the fitted curve or compound fluorescence and quenching.
# Sequence of UniProt P33261 (P33261 whole entry, looked up): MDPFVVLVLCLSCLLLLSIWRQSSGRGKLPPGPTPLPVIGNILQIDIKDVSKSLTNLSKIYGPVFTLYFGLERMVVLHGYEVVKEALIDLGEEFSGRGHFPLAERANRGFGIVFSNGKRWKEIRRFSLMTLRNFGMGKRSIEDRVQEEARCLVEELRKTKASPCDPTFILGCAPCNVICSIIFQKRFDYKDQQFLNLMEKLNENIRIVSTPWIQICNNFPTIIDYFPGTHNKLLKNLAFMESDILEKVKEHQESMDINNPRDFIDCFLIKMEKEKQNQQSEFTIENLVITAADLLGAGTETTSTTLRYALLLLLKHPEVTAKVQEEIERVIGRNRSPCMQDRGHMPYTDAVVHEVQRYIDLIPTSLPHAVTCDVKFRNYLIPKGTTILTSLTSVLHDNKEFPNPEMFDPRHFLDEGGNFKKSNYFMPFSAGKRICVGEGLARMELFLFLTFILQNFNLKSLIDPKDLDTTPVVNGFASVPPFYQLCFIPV
# Sequence of UniProt P10635 (P10635 whole entry, looked up): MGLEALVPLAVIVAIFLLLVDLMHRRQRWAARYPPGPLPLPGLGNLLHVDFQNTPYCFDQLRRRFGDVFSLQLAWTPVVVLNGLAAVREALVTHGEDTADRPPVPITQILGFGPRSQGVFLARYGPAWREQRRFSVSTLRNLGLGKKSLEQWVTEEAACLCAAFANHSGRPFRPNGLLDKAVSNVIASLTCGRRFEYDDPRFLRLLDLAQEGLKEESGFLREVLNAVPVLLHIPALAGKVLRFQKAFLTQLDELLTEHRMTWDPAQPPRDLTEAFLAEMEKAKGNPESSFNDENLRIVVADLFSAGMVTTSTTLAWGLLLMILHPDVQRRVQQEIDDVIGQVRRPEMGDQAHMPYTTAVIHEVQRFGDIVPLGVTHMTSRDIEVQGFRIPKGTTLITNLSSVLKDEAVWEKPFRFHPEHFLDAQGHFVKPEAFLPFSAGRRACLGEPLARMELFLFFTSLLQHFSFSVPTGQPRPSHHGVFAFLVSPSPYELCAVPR
# Sequence of UniProt P16473 (P16473 whole entry, looked up): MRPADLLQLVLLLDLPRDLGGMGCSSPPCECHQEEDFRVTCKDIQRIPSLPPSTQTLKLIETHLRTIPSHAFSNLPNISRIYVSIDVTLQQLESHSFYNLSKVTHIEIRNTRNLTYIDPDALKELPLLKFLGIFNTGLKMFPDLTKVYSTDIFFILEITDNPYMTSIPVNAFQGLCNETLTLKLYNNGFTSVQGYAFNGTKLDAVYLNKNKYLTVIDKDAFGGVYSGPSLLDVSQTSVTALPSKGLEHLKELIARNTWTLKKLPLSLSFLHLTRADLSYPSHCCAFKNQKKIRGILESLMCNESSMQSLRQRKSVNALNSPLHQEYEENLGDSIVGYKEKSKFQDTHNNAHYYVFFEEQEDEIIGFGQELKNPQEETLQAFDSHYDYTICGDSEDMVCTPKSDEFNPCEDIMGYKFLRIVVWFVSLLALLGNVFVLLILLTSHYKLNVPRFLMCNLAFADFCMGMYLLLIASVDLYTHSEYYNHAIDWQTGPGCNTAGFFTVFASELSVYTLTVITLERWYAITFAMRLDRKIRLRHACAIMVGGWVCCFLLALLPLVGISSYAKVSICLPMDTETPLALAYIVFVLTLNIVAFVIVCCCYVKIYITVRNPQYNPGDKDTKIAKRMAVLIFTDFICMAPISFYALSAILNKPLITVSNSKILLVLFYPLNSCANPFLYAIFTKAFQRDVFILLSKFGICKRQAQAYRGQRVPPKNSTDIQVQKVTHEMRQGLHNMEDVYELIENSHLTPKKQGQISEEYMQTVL
# Sequence of UniProt P37231 (P37231 whole entry, looked up): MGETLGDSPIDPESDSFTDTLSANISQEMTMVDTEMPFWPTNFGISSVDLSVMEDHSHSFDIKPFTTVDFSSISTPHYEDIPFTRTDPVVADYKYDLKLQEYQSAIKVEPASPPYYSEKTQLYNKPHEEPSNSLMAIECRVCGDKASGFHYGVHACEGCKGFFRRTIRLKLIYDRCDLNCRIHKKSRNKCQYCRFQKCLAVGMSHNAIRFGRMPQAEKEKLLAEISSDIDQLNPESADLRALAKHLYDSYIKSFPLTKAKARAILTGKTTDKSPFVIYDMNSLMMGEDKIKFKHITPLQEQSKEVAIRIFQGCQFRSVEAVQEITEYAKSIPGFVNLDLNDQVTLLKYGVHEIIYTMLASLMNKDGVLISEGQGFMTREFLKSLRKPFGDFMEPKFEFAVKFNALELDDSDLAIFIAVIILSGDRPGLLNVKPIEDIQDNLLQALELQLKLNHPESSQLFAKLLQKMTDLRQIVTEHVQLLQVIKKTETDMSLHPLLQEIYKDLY
# Sequence of UniProt P05177 (P05177 whole entry, looked up): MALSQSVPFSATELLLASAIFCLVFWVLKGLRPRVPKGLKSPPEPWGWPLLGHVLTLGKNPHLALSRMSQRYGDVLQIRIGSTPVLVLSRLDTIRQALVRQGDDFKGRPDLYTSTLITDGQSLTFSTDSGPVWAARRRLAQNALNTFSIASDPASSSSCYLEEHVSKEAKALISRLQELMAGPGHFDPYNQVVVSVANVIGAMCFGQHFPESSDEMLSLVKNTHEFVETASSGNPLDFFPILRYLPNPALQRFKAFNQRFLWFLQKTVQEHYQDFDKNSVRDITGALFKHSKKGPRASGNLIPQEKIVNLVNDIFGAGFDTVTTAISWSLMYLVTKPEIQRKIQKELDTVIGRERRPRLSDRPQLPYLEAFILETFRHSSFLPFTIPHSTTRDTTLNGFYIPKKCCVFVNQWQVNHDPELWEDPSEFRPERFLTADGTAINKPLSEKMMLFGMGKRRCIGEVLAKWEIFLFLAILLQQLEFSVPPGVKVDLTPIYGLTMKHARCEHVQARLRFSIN
# Sequence of UniProt P11473 (P11473 whole entry, looked up): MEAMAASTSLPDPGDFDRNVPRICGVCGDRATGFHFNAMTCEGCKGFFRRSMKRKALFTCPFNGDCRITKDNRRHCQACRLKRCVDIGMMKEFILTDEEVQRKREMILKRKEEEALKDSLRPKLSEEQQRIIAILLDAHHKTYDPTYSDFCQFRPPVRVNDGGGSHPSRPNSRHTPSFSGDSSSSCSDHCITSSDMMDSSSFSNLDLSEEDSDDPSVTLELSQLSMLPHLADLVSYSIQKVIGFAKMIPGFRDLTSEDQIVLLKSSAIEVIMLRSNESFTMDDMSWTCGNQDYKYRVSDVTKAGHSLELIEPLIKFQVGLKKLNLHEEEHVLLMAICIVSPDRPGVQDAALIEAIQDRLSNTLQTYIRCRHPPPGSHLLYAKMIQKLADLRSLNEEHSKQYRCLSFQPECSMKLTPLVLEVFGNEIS
# Sequence of UniProt P11712 (P11712 whole entry, looked up): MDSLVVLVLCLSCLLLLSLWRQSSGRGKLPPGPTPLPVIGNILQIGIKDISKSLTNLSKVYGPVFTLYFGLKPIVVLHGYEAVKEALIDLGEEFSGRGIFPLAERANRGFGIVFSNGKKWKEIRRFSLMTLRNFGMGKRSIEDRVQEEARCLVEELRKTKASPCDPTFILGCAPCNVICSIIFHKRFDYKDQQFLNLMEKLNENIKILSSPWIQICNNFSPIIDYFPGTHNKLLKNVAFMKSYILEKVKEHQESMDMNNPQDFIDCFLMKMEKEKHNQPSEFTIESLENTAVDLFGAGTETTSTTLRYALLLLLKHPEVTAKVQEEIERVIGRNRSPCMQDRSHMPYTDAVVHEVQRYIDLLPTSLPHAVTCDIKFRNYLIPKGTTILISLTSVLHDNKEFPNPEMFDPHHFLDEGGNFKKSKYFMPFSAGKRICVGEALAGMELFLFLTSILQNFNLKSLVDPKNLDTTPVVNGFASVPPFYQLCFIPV
# Sequence of UniProt P04150 (P04150 whole entry, looked up): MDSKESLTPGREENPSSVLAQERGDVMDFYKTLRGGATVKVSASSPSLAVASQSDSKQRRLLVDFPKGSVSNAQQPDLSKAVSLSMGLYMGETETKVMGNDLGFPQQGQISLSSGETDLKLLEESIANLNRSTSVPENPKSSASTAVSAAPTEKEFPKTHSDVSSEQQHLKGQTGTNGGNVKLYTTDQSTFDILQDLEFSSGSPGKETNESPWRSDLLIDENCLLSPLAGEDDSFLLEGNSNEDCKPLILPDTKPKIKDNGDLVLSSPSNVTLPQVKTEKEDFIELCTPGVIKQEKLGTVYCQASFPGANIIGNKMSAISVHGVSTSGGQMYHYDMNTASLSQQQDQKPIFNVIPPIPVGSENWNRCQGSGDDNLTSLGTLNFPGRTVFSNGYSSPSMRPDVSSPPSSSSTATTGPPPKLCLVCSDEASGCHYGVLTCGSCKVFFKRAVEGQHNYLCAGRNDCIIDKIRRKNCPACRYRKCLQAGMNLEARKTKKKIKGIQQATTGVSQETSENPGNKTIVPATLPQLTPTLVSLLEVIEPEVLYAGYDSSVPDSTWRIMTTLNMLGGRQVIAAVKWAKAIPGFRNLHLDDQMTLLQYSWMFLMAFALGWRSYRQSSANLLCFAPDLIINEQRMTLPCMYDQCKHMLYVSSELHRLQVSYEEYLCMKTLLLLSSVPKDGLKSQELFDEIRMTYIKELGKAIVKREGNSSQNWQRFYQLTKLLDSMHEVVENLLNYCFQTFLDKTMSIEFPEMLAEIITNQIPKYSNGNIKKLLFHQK
smiles,measurement,setting,value
COCCCN1CCC(NC(=O)c2cc(Cl)c(N)c3c2OCC3)CC1,Potency,[1],"inconclusive: 43.6 µM [inhibitor, single point]"
CC(C)N(c1ccccc1)C(C)C,Potency,[2],"inconclusive: 68.6 µM [activator, single point]"
same,"activity change, negative = inhibition",[3],inconclusive: 22.3%
same,Potency,[4],inactive
same,Potency,[5],inactive
FC(F)(F)c1ccccc1,Potency,[6],inactive
same,Potency,[7],"inconclusive: 21.3 µM [rising, full curve, poor fit]"
same,activation,[8],inconclusive: 16.5%
same,Potency,[9],inactive
CCCCC/C=C/CC(=O)OC,Potency,[2],"inconclusive: 0.0863 µM [rising, single point]"
same,Potency,[6],"inconclusive: 68.6 µM [rising, single point]"
same,Potency,[3],inactive
same,Potency,[10],inactive
same,Potency,[1],inactive
same,Potency,[11],inactive
same,Potency,[5],"inconclusive: 39.9 µM [inhibitor, partial curve]"
C=C/C=C/C=C/CCCCC,Potency,[12],"inconclusive: 2.91 µM [falling, full curve, poor fit]"
same,activation,[13],inactive: -9.38% [at 19 µM]
same,Potency,[1],"inconclusive: 19 µM [inhibitor, single point]"
C[N+]1(C)CCC(OC(=O)C(O)(c2ccccc2)C2CCCC2)C1 (stereo not drawn),Potency,[2],inactive
same,Potency,[6],"inconclusive: 29.8 µM [rising, partial curve, poor fit]"
same,Potency,[7],"inconclusive: 13.4 µM [cytotoxic, single point] and inconclusive: 10.7 µM [cytotoxic, single point]"
same,"ratio activity, negative = inhibition",[14],inconclusive: 1.48%
CCCC(=O)OCCC(C)CCC=C(C)C (stereo not drawn),Potency,[15],inconclusive: 68.6 µM [cytotoxic]
same,Potency,[6],"inconclusive: 27.3 µM [rising, partial curve, poor fit]"
same,Potency,[14],"inconclusive: 49 µM [activator, partial curve, poor fit]"
same,"activity change, negative = inhibition",[3],inconclusive: 21.9%
same,Potency,[12],inactive
same,activation,[13],inconclusive: 44.3%
same,Potency,[10],"inconclusive: 71 µM [inhibitor, partial curve]"
same,Potency,[1],"inconclusive: 10 µM [inhibitor, full curve, poor fit]"
CO/N=C(/C(=O)N[C@@H]1C(=O)N2C(C(=O)OCOC(=O)C(C)(C)C)=C(C)CS[C@H]12)c1csc(N)n1,Potency,[16],"inconclusive: 29.8 µM [rising, partial curve, poor fit]"
same,"ratio activity, negative = MMP loss",[2],inconclusive: 17.8%
same,Potency,[7],"inconclusive: 9.52 µM [cytotoxic, partial curve, poor fit]"
same,Potency,[8],inactive
same,"activity change, negative = inhibition",[3],inconclusive: -4.21%
same,Potency,[12],inactive
same,Potency,[17],inactive
same,Potency,[1],"inconclusive: 43.6 µM [inhibitor, single point]"
CC(C)CCCC(C)NCCC(C)C (stereo not drawn),Potency,[14],inactive
same,activation,[8],inconclusive: -10.1%
same,Potency,[18],inactive
same,Potency,[10],active: 1.23 µM
same,Potency,[11],inactive
same,Potency,[5],inactive
COC(=O)CCCCC(=O)O,"ratio activity, negative = MMP loss",[2],inconclusive: 3.08%
same,Potency,[15],"inconclusive: 1.37 µM [rising, single point]"
same,Potency,[14],inactive
same,Potency,[9],inactive
same,Potency,[5],inactive
C=CC(=O)O[C@H]1C[C@@H]2CC[C@@]1(C)C2(C)C,Potency,[12],"inconclusive: 0.217 µM [falling, single point]"
same,Potency,[19],"inconclusive: 4.01 µM [rising, partial curve, poor fit]"
same,Potency,[18],"inconclusive: 27.3 µM [cytotoxic, partial curve, poor fit]"
same,Potency,[10],inactive
same,Potency,[11],inactive
CCO[Si](CC)(OCC)OCC,Potency,[2],active: 61.1 µM
same,Potency,[15],"inconclusive: 34.4 µM [rising, partial curve]"
same,Potency,[8],inactive
same,Potency,[3],"inconclusive: 1.95 µM [fluorescent, full curve, poor fit]"
same,Potency,[10],"inconclusive: 63.3 µM [inhibitor, partial curve]"
same,Potency,[11],"inconclusive: 71 µM [inhibitor, partial curve]"
CCOC(=O)OC(=O)OCC,Potency,[17],inactive
same,Potency,[10],inactive
CC(=O)NCCCCCC(=O)O,Potency,[8],inactive
same,Potency,[3],inactive
same,Potency,[19],inactive
C=C(C)CCCC,Potency,[12],"inconclusive: 77 µM [falling, single point]"
same,Potency,[5],inactive
c1ccccc1,Potency,[12],inactive
same,Potency,[11],inactive
CCOc1ccccc1OCC,Potency,[2],inactive
same,Potency,[20],inactive
same,Potency,[14],inactive
same,Potency,[13],inactive
same,Potency,[19],"inconclusive: 127 µM [rising, single point]"
same,Potency,[10],"inconclusive: 71 µM [inhibitor, partial curve, poor fit]"
same,Potency,[11],"inconclusive: 31.7 µM [inhibitor, partial curve]"
same,Potency,[5],"inconclusive: 35.6 µM [inhibitor, partial curve]"

# From PubChem BioAssay (Tox21)
